Measured values published in PubChem BioAssay AID588453 (National Center for Advancing Translational Sciences (NCATS), 2011).
Screen size: about 390,000 compounds; about 4,000 (1%) were called active. The inconclusive results got no clear call from the source; some entries with a clear call stand among them for comparison. The call rests on the fitted dose curve; in most records, active means well fitted inhibition curve with a large enough effect; inconclusive means small, poorly fitted or top-dose-only effect; inactive means no such curve, though single readings can be large or run the other way. Potencies of inconclusive entries are doubtful fits and often do not repeat.
Further: nearly all actives have a fitted effect of over 65% in size.
On the % scale 0 is the no-effect control and ±100 the full control effect; potency means the concentration at half of the fitted maximal effect; tags describe the fitted curve by direction and shape.

Each compound was assayed against Thioredoxin reductase 1, cytoplasmic (Rattus norvegicus) (UniProt O89049) (assay: qHTS Assay for Inhibitors of Mammalian Selenoprotein Thioredoxin Reductase 1 (TrxR1): qHTS). Conditions: recombinant rTrxR1, NADPH fluorescence consumption, selenite substrate; series mostly up to 114 µM; activity change, negative = inhibition: at the top concentration.
Sequence of UniProt O89049 (O89049 whole entry, looked up): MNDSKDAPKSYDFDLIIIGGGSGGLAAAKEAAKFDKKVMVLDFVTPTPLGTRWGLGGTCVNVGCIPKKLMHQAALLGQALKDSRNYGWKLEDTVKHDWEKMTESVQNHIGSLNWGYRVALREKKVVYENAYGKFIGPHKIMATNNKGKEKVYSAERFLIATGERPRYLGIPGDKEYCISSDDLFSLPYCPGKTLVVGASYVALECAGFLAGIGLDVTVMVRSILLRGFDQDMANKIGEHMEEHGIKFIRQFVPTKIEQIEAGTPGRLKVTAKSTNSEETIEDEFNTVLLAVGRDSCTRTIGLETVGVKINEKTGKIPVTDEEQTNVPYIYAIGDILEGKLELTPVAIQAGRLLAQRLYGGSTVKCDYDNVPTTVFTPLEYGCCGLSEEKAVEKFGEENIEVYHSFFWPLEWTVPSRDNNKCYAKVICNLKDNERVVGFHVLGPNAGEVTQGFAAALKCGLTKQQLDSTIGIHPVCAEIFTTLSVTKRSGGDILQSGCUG
Outline: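 Rat TrxR1 (90 nM in the dispensed reagent) was pre-reduced with 400 uM NADPH for 5 min at room temperature, then incubated with compound for 15 min. After 400 uM selenite was added, NADPH fluorescence (Ex 340/Em 450 nm) was followed for 8 min.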
COc1ccc(C(=O)NNC(=S)NC2CCCCC2)cc1OC was tested, and the “activity change, negative = inhibition” value was inactive: 12.2%.
CC(=O)c1ccccc1NC(=O)c1ccc(OCc2c(C)noc2C)cc1 was tested, and the “activity change, negative = inhibition” value was inactive: 43.6%.
With C[C@H](C(=O)OCO/N=[N+](\[O-])N1CCCC1)c1cccc2ccccc12 the Potency was active: 17.8 µM.
With CC[C@]12c3[nH]c4cc(-c5ccco5)ccc4c3CCN1C(=O)[C@@H](CC(=O)NCCc1ccccn1)C[C@@H]2C(=O)N1CCN(C(=O)c2ccco2)CC1 the Potency was inconclusive: 44.7 µM [inhibitor, partial curve, poor fit].
For COc1ccc(Nc2cnn(-c3nc4ccccc4s3)c(=O)c2Cl)cc1, the Potency was active: 3.16 µM.
In the case of C#CCOCCOCCOCCNc1nc(N2CCN(C(=O)C([C@@H](C)CC)n3cc(C(N)COC(=O)C(F)(F)F)nn3)CC2)nc(N2CCN(C(=O)[C@H](Cc3cc4ccccc4[nH]3)n3cc(C(N)CO)nn3)CC2)n1 (some centres not stated), the Potency is reported as inconclusive: 50.1 µM [inhibitor, single point].
With CN1C(=O)NC(c2ccc(O)cc2)C(C(=O)c2cccs2)C1(O)C(F)(F)F (configuration not stated) the Potency was inconclusive: 8.91 µM [inhibitor, partial curve].
In the case of Cc1cc(C)cc(NC(=O)CSc2nc3ccccc3nc2N2CCCCC2)c1, the “activity change, negative = inhibition” value is reported as inactive: 17.2% [at 57.1 µM].
With CN(CC(=O)Nc1ccc(Cl)cc1)C(=O)c1ccc(N2CCCC2=O)cc1 the “activity change, negative = inhibition” value was inactive: -11.1%.
COc1ccc(F)c(-c2nc(CN3CCN(C(=O)c4ccco4)CC3)c(C)o2)c1 was tested, and the Potency was inconclusive: 79.4 µM [inhibitor, single point].
Cn1nc(-c2ccc(Cl)cc2)nc2c(=O)n(C)c(=O)nc1-2 was tested, and the Potency was inconclusive: 14.1 µM [inhibitor, partial curve, poor fit].
For O=C(N/N=C/c1ccc([N+](=O)[O-])o1)c1ccc(O)cc1, the Potency was active: 20 µM.
For Cc1cc(C(=O)Nc2cnn(Cc3ccc(Cl)cc3Cl)c2)no1, the Potency was inconclusive: 39.8 µM [inhibitor, single point].
O=C(Cn1ccc([N+](=O)[O-])n1)NCc1ccco1 was tested, and the Potency was inconclusive: 79.4 µM [inhibitor, single point].
In the case of O=[N+]([O-])/C=C\c1ccc(N2CCCC2)c(F)c1, the Potency is reported as inconclusive: 20 µM [inhibitor, partial curve, poor fit].
In the case of CC(CCc1ccccc1)NC(=O)CCNC(=O)Cn1ccc2ccccc2c1=O (configuration not stated), the Potency is reported as inconclusive: 89.1 µM [inhibitor, partial curve, poor fit].
For CCCCCOC(=O)NCC(O)c1ccccc1 (configuration not stated), the “activity change, negative = inhibition” value was inactive: -4.11%.
O=C(Nc1cccnc1N1CCOCC1)c1ccco1 was tested, and the Potency was inconclusive: 89.1 µM [inhibitor, single point].
With CCOC(=O)c1ccn(-c2nc(-c3ccco3)cc(C(F)(F)F)n2)n1 the Potency was inconclusive: 39.8 µM [inhibitor, partial curve].
In the case of O=C(C1=C(O)C(=O)N(CCN2CCOCC2)C1c1ccccn1)c1cccs1 (configuration not stated), the Potency is reported as active: 22.4 µM.
With CCOc1cc(NC(=S)NCCCN2CCOCC2)c(OCC)cc1NC(=O)c1ccccc1 the Potency was inconclusive: 14.1 µM [inhibitor, partial curve, poor fit].
C=CCc1ccc(OCc2ccc(C(=O)Nc3ccc(NC(C)=O)cc3)o2)c(OC)c1 was tested, and the Potency was inconclusive: 89.1 µM [inhibitor, partial curve, poor fit].
For CCCOc1ccc(/C(O)=C2/C(=O)C(=O)N(CCCn3ccnc3)C2c2ccco2)cc1 (configuration not stated), the Potency was inconclusive: 79.4 µM [inhibitor, single point].
CCN1CCN(C(c2ccccc2F)c2c(O)cc(C)n(CCOC)c2=O)CC1 (configuration not stated) was tested, and the Potency was inconclusive: 12.6 µM [inhibitor, partial curve].
In the case of Cc1ccc(/C=C/c2ccc3cccc(O)c3n2)s1, the Potency is reported as inconclusive: 89.1 µM [inhibitor, single point].
CN(C)c1ccc(/C=C\C=C/c2ccnc3ccccc23)cc1 was tested, and the “activity change, negative = inhibition” value was inactive: -6.35%.
In the case of Nc1c(-c2ccccc2)c(CSc2nc3ccccc3[nH]2)nn1-c1ccc(Cl)cc1, the Potency is reported as inconclusive: 89.1 µM [inhibitor, single point].
With S=C1NC2=C(CCCC2=C2SCCS2)C(c2ccccc2)N1 (configuration not stated) the Potency was inconclusive: 39.8 µM [inhibitor, single point].
O=C(COC(=O)/C=C/c1ccc([N+](=O)[O-])cc1)Nc1ccc2[nH]c(=O)[nH]c2c1 was tested, and the Potency was inconclusive: 22.4 µM [inhibitor, partial curve].
In the case of O=C(NCSc1ccnc(SCNC(=O)c2ccccc2)n1)c1ccccc1, the Potency is reported as inconclusive: 10 µM [inhibitor, partial curve, poor fit].
With O=C(Cc1ccccc1)NC1CC(=O)N(c2ccccc2)C1 (configuration not stated) the “activity change, negative = inhibition” value was inactive: 11.9% [at 57.1 µM].
In the case of COc1ccc2c(c1)CCc1c(C(=O)Nc3c(C)n(C)n(-c4ccccc4)c3=O)noc1-2, the Potency is reported as inconclusive: 44.7 µM [inhibitor, partial curve].
O=[N+]([O-])C(=C1Nc2ccccc2N1)C(Cl)=C(Cl)Cl was tested, and the Potency was active: 11.2 µM.
With CCN1CC(=O)Nc2cc(S(=O)(=O)N3CCOCC3)ccc21 the Potency was inconclusive: 39.8 µM [inhibitor, partial curve].
In the case of CN(C)S(=O)(=O)c1cccc(NC(=O)COC(=O)c2ccc([N+](=O)[O-])o2)c1, the Potency is reported as active: 25.1 µM.
In the case of Cc1cc(C)nc(NS(=O)(=O)c2ccc(NC(=O)c3ccc(N4C(=O)CCC4=O)cc3)cc2)n1, the Potency is reported as inconclusive: 56.2 µM [inhibitor, partial curve, poor fit].
With CC1CCCN(CCCNC(=O)c2cc3c(s2)-c2ccccc2OC3)C1 (configuration not stated) the Potency was inconclusive: 70.8 µM [inhibitor, partial curve, poor fit].
With O=C(CN1C(=O)c2ccccc2S1(=O)=O)NCCSCc1ccco1 the Potency was inconclusive: 39.8 µM [inhibitor, single point].
In the case of COc1cc(/C=N/NC(=O)c2cccc([N+](=O)[O-])c2)ccc1OCc1ccccc1, the “activity change, negative = inhibition” value is reported as inactive: -7.84%.
CCOc1cc(-c2noc(N)c2C#N)cc(OCC)c1OCC was tested, and the Potency was inconclusive: 8.91 µM [inhibitor, partial curve].
With COc1ccccc1OCCCn1cc(C#N)c2ccccc21 the “activity change, negative = inhibition” value was inactive: 24.9% [at 57.1 µM].
In the case of O=C(CCC(=O)c1cccs1)NNC(=O)c1ccccc1Cl, the Potency is reported as inconclusive: 15.8 µM [inhibitor, full curve].
In the case of COc1cccc(C(=O)N2CCN(CCc3ccncc3)CC2)c1, the Potency is reported as inconclusive: 35.5 µM [inhibitor, partial curve, poor fit].
In the case of C=CCOC(=O)C(=O)/C=C/c1c(C)n(C)n(-c2ccccc2)c1=O, the “activity change, negative = inhibition” value is reported as inactive: 1.23%.
With COc1cc(/C(C)=N/Nc2ccc(C(=O)O)cc2)cc(OC)c1OC the Potency was inconclusive: 7.08 µM [inhibitor, partial curve].
With CN(C)C(CNC(=O)CSC(=S)N1CCCC1)c1ccccc1 (configuration not stated) the Potency was inconclusive: 89.1 µM [inhibitor, single point].
With COc1ccc(S(=O)(=O)n2nc(-c3ccco3)nc2NCc2ccc(N(C)C)cc2)cc1 the “activity change, negative = inhibition” value was inactive: 11.4%.
CC1(C)CC(=O)C(C=NCCN2CCN(C(=O)CCl)CC2)=C(O)C1 was tested, and the Potency was inconclusive: 56.2 µM [inhibitor, partial curve, poor fit].
Cc1ccc(C)c(N2CCN(C(=O)Cn3ncc4c(=O)oc5ccccc5c43)CC2)c1 was tested, and the Potency was inconclusive: 50.1 µM [inhibitor, partial curve, poor fit].
CC(=O)NC(c1ccc(C(C)C)cc1)c1c(O)ccc2ccccc12 (configuration not stated) was tested, and the “activity change, negative = inhibition” value was inactive: -5.33%.
With Cc1ccc2c(c1)c(=O)c1c3n2CCN(C(=O)CCl)C3CC1 (configuration not stated) the Potency was active: 14.1 µM.
Cc1cccc(N2CCN(Cc3ccc([N+](=O)[O-])o3)CC2)c1C was tested, and the Potency was inconclusive: 15.8 µM [inhibitor, full curve].
With COc1ccc(N2C(=O)CC(c3ccccc3)CC2=O)cc1 the “activity change, negative = inhibition” value was inactive: 9.31% [at 57.1 µM].
With CC(C)(C)c1ccc(C(=O)NC(=S)NNC(=O)c2cccs2)cc1 the Potency was inconclusive: 35.5 µM [inhibitor, partial curve, poor fit].
For Cc1cc(=S)[nH]c2ccccc12, the Potency was inconclusive: 70.8 µM [inhibitor, partial curve].
In the case of O=C1/C(=C\c2ccc([N+](=O)[O-])cc2)CS(=O)(=O)C/C1=C/c1ccc([N+](=O)[O-])cc1, the Potency is reported as inconclusive: 2.24 µM [inhibitor, partial curve].
In the case of O=C(CC(C(=O)O)P(=O)(c1ccccc1)c1ccccc1)c1ccc(Br)cc1 (configuration not stated), the Potency is reported as inconclusive: 39.8 µM [inhibitor, full curve, poor fit].
O=C(c1cccc(-n2cccc2)c1)N1CCN(S(=O)(=O)c2ccc(F)cc2)CC1 was tested, and the Potency was inconclusive: 89.1 µM [inhibitor, single point].
O=C(COC(=O)C1(c2cccc(F)c2)CCCC1)NCc1cccs1 was tested, and the “activity change, negative = inhibition” value was inactive: 27.9%.
With COc1cccc(N2CCN(c3ncnc4c3c(-c3ccccc3)cn4-c3ccc(C)cc3)CC2)c1 the “activity change, negative = inhibition” value was inactive: 7.64% [at 57.1 µM].
In the case of COc1ccc(CCNC(=O)c2ccc3c(=O)n(Cc4ccco4)c(=S)[nH]c3c2)cc1OC, the Potency is reported as inconclusive: 28.2 µM [inhibitor, single point].
CC(=O)Nc1c(I)c(NC(C)=O)c(I)c(C(=O)O)c1I was tested, and the Potency was inconclusive: 56.2 µM [inhibitor, partial curve].
In the case of Cc1ccc(S(=O)(=O)c2nnn3c2nc(NC(C)c2ccccc2)c2sccc23)cc1 (configuration not stated), the “activity change, negative = inhibition” value is reported as inactive: 44%.
In the case of O=C(CN1C(=O)COc2ccc(S(=O)(=O)N3CCCC3)cc21)Nc1cccc(F)c1, the “activity change, negative = inhibition” value is reported as inactive: 6.55%.
For COc1ccccc1N1CCN(C(=O)c2ccc(C(C)(C)C)cc2)CC1, the “activity change, negative = inhibition” value was inactive: 14.2% [at 57.1 µM].
For COc1cc(/C=C/C2=CC(C)(C)NC(=S)N2)cc(OC)c1OC, the Potency was inconclusive: 39.8 µM [inhibitor, partial curve].
For O=[N+]([O-])c1ccccc1/C=N/n1c(-c2cccnc2)n[nH]c1=S, the Potency was inconclusive: 56.2 µM [inhibitor, single point].
